# From PubChem BioAssay (EPA / NIEHS)
# For part of these data: What follows is the remainder of the data, with few or none of the hits. Records with an inconclusive call do not appear. The list shows a part of the results, in another mix than the full data. Calls of active or inactive are those of the source. How the source made its calls, unless noted: active means hit-call score of the fitted dose curve at least 0.9, where 1 is the maximum; inactive means score below 0.9.
# What was measured:
# [1] = read-out: Cytochrome P450 3A4 (Homo sapiens) (UniProt P08684); test: LTEA_HepaRG_CYP3A4: Life Technologies and Expression Analysis (LTEA) Assay for CYP3A4 using HepaRG (AID 2283487); conditions: actives raise or lower the signal; mRNA level, 48 h
# Chain of UniProt P08684 (P08684 whole entry, looked up): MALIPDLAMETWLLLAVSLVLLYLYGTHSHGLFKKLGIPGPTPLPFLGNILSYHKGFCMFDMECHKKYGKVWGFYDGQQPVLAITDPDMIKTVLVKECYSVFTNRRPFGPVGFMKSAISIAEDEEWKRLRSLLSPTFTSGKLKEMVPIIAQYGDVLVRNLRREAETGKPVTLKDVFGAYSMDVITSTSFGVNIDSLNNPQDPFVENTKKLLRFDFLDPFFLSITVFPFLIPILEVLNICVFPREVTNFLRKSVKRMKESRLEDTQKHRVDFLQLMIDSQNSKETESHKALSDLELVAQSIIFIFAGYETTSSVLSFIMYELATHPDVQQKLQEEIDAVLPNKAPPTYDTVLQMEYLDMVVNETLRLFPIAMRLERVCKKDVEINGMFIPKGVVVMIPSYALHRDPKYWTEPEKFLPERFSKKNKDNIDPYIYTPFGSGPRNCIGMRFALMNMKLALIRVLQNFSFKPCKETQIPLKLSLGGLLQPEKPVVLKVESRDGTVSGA
# Summary of the method: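 Differentiated HepaRG cells in serum-free induction medium exposed in duplicate for 48 h to 8 half-log concentrations up to 100 uM in 0.5% DMSO. CYP3A4 mRNA measured by qRT-PCR normalized to ACTB, GAPDH and POLR2A; bidirectional fit versus DMSO.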
# [2] = molecular target: Estrogen receptor (Homo sapiens) (UniProt P03372); test: CCTE_Deisenroth_AIME_384WELL_LUC_Active: CCTE's 384-well Estrogen Receptor Transactivation Assay with AIME metabolic competence (ERTA luciferase; metabolism positive), Deisenroth Lab (AID 2284030; active means hit-call score of the fitted dose curve at least 0.9, where 1 is the maximum)
# Chain of UniProt P03372 (P03372 whole entry, looked up): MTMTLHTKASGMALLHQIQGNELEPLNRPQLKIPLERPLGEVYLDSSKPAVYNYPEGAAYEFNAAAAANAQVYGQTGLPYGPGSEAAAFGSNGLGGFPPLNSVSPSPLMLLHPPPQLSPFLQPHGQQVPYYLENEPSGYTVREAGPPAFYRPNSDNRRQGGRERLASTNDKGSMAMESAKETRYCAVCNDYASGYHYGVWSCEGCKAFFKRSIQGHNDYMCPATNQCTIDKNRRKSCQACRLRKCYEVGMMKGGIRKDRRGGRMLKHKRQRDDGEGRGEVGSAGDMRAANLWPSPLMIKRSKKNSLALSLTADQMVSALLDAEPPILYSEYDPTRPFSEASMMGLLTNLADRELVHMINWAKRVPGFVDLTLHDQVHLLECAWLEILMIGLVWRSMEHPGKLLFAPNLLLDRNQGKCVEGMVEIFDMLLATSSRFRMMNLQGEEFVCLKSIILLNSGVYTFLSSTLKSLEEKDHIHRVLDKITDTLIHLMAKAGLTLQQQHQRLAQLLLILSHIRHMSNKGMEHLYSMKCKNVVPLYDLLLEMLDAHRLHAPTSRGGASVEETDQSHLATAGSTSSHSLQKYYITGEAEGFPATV
# Summary of the method: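 Estrogenic luciferase signal in VM7Luc4E2 cells is measured at 24 hour, after chemicals have been preconditioned 2 hours with PB/BNF-induced rat hepatic S9 in alginate. Gain of signal is fitted relative to 17beta-estradiol, across 0.002 - 200 uM.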
# MYC, MYC (gene 4609) = test: LTEA_HepaRG_MYC: Life Technologies and Expression Analysis (LTEA) Assay for MYC using HepaRG (AID 2283518); conditions: actives raise or lower the signal; mRNA level, 48 h
# Summary of the method: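 Expression changes were scored by TaqMan qRT-PCR with ACTB, GAPDH and POLR2A normalization. Cultures in serum-free induction medium received duplicate 8-point concentration series, highest 100 uM, for 48 h; DMSO (0.5%) served as baseline.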
# [3] = read-out: Nuclear factor erythroid 2-related factor 2 (Homo sapiens) (UniProt Q16236); test: LTEA_HepaRG_NFE2L2: Life Technologies and Expression Analysis (LTEA) Assay for Nuclear factor erythroid 2-related factor 2 (NFE2L2) Transcription Factor using HepaRG (AID 2283527); conditions: actives raise or lower the signal; mRNA level, 48 h
# Chain of UniProt Q16236 (Q16236 whole entry, looked up): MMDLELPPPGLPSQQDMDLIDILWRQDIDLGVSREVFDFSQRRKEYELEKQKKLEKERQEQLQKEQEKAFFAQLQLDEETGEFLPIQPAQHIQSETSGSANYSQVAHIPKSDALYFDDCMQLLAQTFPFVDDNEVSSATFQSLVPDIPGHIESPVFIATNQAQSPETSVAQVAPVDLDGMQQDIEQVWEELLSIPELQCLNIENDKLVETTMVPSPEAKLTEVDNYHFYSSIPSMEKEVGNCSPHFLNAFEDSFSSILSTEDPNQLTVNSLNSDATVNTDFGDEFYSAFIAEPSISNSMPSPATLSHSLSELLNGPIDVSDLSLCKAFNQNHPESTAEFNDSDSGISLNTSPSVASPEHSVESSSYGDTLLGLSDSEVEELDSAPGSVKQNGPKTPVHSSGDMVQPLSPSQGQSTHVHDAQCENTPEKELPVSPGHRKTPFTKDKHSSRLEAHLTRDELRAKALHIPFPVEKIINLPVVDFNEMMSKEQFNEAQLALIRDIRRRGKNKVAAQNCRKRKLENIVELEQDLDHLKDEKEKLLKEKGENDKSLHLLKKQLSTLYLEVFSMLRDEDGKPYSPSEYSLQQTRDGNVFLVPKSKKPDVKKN
# Summary of the method: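 HepaRG, 48 h dosing, 8-pt half-log series from 100 uM in 0.5% DMSO, duplicates. Read-out: NFE2L2 mRNA by qRT-PCR (ACTB/GAPDH/POLR2A normalization). Bidirectional curve fit vs DMSO baseline.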
# [4] = read-out: Cytochrome P450 (CYP24A1), CYP24A1 (gene 1591); test: LTEA_HepaRG_CYP24A1: Life Technologies and Expression Analysis (LTEA) Assay for Cytochrome P450 (CYP24A1) using HepaRG (AID 2283478); conditions: actives raise or lower the signal; mRNA level, 48 h
# Summary of the method: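 Gene expression of CYP24A1 by TaqMan qRT-PCR in HepaRG after 48 h treatment, highest concentration 100 uM; activity fitted in both directions relative to DMSO vehicle.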
# [5] = read-out: NAD(P)H dehydrogenase [quinone] 1 (NQO1), NQO1 (gene 1728); test: LTEA_HepaRG_NQO1: Life Technologies and Expression Analysis (LTEA) Assay for NAD(P)H dehydrogenase [quinone] 1 (NQO1) using HepaRG (AID 2283526); conditions: actives raise or lower the signal; mRNA level, 48 h
# Summary of the method: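 qRT-PCR read-out (Fluidigm TaqMan), normalized to three housekeeping genes, after 48 h chemical exposure of HepaRG cells. Concentrations: eight points, top 100 uM, half-log steps, 0.5% DMSO vehicle. Gain or loss of signal fitted relative to DMSO.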
# HGF (gene 3082) = test: LTEA_HepaRG_HGF: Life Technologies and Expression Analysis (LTEA) Assay for Hepatocyte Growth Facto (HGF) using HepaRG (AID 2283505); conditions: actives raise or lower the signal; mRNA level, 48 h
# Summary of the method: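 Using HepaRG monolayers kept in 0.5% DMSO, chemicals were tested in duplicate over eight half-log concentrations from 100 uM for 48 h. Endpoint: HGF mRNA change relative to DMSO, normalized to ACTB/GAPDH/POLR2A.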
# [6] = read-out: Pro-epidermal growth factor (Homo sapiens) (UniProt P01133); test: LTEA_HepaRG_EGF: Life Technologies and Expression Analysis (LTEA) Assay for Epidermal growth factor (EGF) using HepaRG (AID 2283489); conditions: actives raise or lower the signal; mRNA level, 48 h
# Summary of the method: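 Concentration-response mRNA assay: HepaRG cells dosed 48 h (max 100 uM, 0.5% DMSO), EGF measured by qRT-PCR and normalized to ACTB/GAPDH/POLR2A.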
# [7] = CEETOX_H295R_MTT_cell_viability: Viability Assessment in the CeeTox HT-H295R MTT Assay (AID 2283718);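 further: curve fitted both ways so AC50 may mark viability loss or gain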
# [8] = read-out: growth arrest and DNA damage 45 (GADD45G), GADD45G (gene 10912); test: LTEA_HepaRG_GADD45G: Life Technologies and Expression Analysis (LTEA) Assay for growth arrest and DNA damage 45 (GADD45G) using HepaRG (AID 2283499); conditions: actives raise or lower the signal; mRNA level, 48 h
# Summary of the method: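 Concentration-response in HepaRG: 48 h dosing, 0.5% DMSO, highest level 100 uM. GADD45G expression by qRT-PCR, normalised to endogenous controls; bidirectional fit to DMSO.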
# [9] = read-out: Heat shock 70 kDa protein 1 (HSPA1A), gene 3303; test: LTEA_HepaRG_HSPA1A: Life Technologies and Expression Analysis (LTEA) Assay for Heat shock 70 kDa protein 1 (HSPA1A) using HepaRG (AID 2283502); conditions: actives raise or lower the signal; mRNA level, 48 h
# Summary of the method: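 HepaRG, 48 h exposure, 8-pt half-log CRC from 100 uM in 0.5% DMSO, duplicates. Readout: TaqMan qRT-PCR of HSPA1A mRNA, housekeeping-normalized (ACTB/GAPDH/POLR2A). Bidirectional fit vs 0.5% DMSO baseline.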
# [10] = read-out: Phosphatase and tensin (PTEN), PTEN (gene 5728); test: LTEA_HepaRG_PTEN: Life Technologies and Expression Analysis (LTEA) Assay for Phosphatase and tensin (PTEN) using HepaRG (AID 2283523); conditions: actives raise or lower the signal; mRNA level, 48 h
# Summary of the method: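 HepaRG, 48 h exposure, 8-pt half-log series from 100 uM top, 0.5% DMSO vehicle, duplicates. Readout: Fluidigm qRT-PCR of PTEN transcript; housekeeping normalization (ACTB, GAPDH, POLR2A). Gain or loss fitted relative to DMSO baseline.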
# [11] = read-out: Thyroid Hormone Responsive (THRSP), THRSP (gene 7069); test: LTEA_HepaRG_THRSP: Life Technologies and Expression Analysis (LTEA) Assay for Thyroid Hormone Responsive (THRSP) using HepaRG (AID 2283536); conditions: actives raise or lower the signal; mRNA level, 48 h
# Summary of the method: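 qRT-PCR read-out (Fluidigm TaqMan), housekeeping-normalized (ACTB/GAPDH/POLR2A). HepaRG, 48 h chemical exposure, 8-pt half-log series from 100 uM in 0.5% DMSO, duplicates. Bidirectional curve fit vs 0.5% DMSO baseline.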
# [12] = read-out: 3-Hydroxy-3-Methylglutaryl-CoA Synthase 2 (HMGCS2), HMGCS2 (gene 3158); test: LTEA_HepaRG_HMGCS2: Life Technologies and Expression Analysis (LTEA) Assay for 3-Hydroxy-3-Methylglutaryl-CoA Synthase 2 (HMGCS2) using HepaRG (AID 2283504); conditions: actives raise or lower the signal; mRNA level, 48 h
# Summary of the method: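 This steatosis marker was read as HMGCS2 mRNA change in HepaRG cells treated 48 h with up to 100 uM chemical. Normalisation used housekeeping genes; activity in either direction was fitted relative to 0.5% DMSO vehicle.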
# [13] = molecular target: Cellular tumor antigen p53 (Homo sapiens) (UniProt P04637); test: TOX21_p53_BLA_p2_ratio: Tox21 HCT-116 p53 Agonism Beta-lactamase Assay, Ratio, Phase 2 (AID 2283592; active means hit-call score of the fitted dose curve at least 0.9, where 1 is the maximum)
# Chain of UniProt P04637 (P04637 whole entry, looked up): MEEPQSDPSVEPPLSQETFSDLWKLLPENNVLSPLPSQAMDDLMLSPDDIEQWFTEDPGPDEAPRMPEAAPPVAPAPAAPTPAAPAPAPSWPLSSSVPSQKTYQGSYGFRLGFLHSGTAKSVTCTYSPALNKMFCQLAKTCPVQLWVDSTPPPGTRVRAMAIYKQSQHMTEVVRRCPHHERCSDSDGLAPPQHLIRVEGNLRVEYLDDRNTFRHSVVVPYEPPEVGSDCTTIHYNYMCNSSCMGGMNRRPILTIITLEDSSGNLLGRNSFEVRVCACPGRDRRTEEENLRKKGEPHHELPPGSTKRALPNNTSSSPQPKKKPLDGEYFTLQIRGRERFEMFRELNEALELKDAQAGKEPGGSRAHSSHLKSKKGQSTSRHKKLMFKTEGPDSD
# Summary of the method: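 DMSO-normalized, positive-direction endpoint derived from the 460 nm/530 nm FRET ratio in HCT116 p53 beta-lactamase reporter cells exposed 16 h at 37C and loaded with CCF4-AM for 2 h.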
# [14] = read-out: Cytochrome P450 (CYP1A2), CYP1A2 (gene 1544); test: LTEA_HepaRG_CYP1A2: Life Technologies and Expression Analysis (LTEA) Assay for Cytochrome P450 (CYP1A2) using HepaRG (AID 2283479); conditions: actives raise or lower the signal; mRNA level, 48 h
# Summary of the method: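 In duplicate wells, HepaRG cultures maintained in 0.5% DMSO were treated 48 h across an 8-point, half-log series topping at 100 uM; phenobarbital (1 mM) served as induction control. Expression was read by qRT-PCR.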
# [15] = read-out: Early growth response protein 1 (EGR1) transcription factor, EGR1 (gene 1958); test: LTEA_HepaRG_EGR1: Life Technologies and Expression Analysis (LTEA) Assay for Early growth response protein 1 (EGR1) transcription factor using HepaRG (AID 2283490); conditions: actives raise or lower the signal; mRNA level, 48 h
# Summary of the method: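 HepaRG, 48 h exposure, 8-pt half-log series from 100 uM, 0.5% DMSO vehicle; EGR1 transcript by TaqMan qRT-PCR (Fluidigm array), housekeeping-normalized; bidirectional fit relative to DMSO baseline.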
# [16] = ACEA_AR_antagonist_AUC_viability: ACEA Biosciences xCELLigence Real-Time Cell Analysis on Androgen Receptor Antagonism for Viability (AID 2283776; active means hit-call score of the fitted dose curve at least 0.9, where 1 is the maximum;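 further: area under impedance growth curve at 80 h after dosing as viability; hits lower the growth signal relative to DMSO meaning cytotoxicity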)
# Summary of the method: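 22Rv1 human prostate cancer cells were seeded on electrode plates, monitored overnight, then exposed to eight 1:4 dilutions from 100 uM final. Impedance-based growth kinetics at 80 h gave an AUC viability endpoint normalized to DMSO.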
structure (smiles),measurement,setting,value
CCCCCCCC(=O)O,outcome,[1],inactive
same,outcome,[2],inactive
CN(C)C(=O)NC1(c2ccccc2)CCN(CCC[C@]2(c3ccc(Cl)c(Cl)c3)CCCN(C(=O)c3ccccc3)C2)CC1,AC50,"MYC, MYC (gene 4609)",active: 19.3 µM
same,AC50,[3],active: 19.3 µM
CN1C(=O)N(c2ccccc2Br)Cc2cnc(Nc3ccc4c(c3)OCC(CO)O4)nc21 (stereo not drawn),outcome,[4],inactive
CCCCC(CC)CO (stereo not drawn),outcome,[5],inactive
CCCOC(=O)NCCCN(C)C,outcome,HGF (gene 3082),inactive
Nc1ccc(S(=O)(=O)c2ccc(N)cc2)cc1,outcome,[6],inactive
same,AC50,[7],active: 13.2 µM
CC(C)=CCC/C(C)=C/CO,outcome,[8],inactive
same,outcome,[9],inactive
Cc1ccc(Cl)cc1,outcome,[10],inactive
same,outcome,[11],inactive
CC(=O)c1ccc2c(c1)[C@H](NC(=O)c1ccc(F)cc1)[C@@H](O)C(C)(C)O2,outcome,[12],inactive
same,outcome,[13],inactive
O=C(O)c1ccc([N+](=O)[O-])cc1,outcome,[14],inactive
same,outcome,[15],inactive
same,outcome,[16],inactive
